Hit rate of the full screen: of about 360,000 compounds, about 11,000 (3.1%) were called active. This list was built around the results that the source calls inconclusive (neither active nor inactive); the mix of calls is not that of the screen. Calls come from the whole dose curve; as a rule, active = well fitted inhibition curve with a large enough effect; inconclusive = small, poorly fitted or top-dose-only effect; inactive = no such curve, though single readings can be large or run the other way. Potencies of inconclusive entries are left out as doubtful fits.
target: Schistosoma mansoni thioredoxin glutathione reductase (TGR) (UniProt Q962Y6); test: qHTS Assay for the Inhibitors of Schistosoma Mansoni Peroxiredoxins; details: purified TGR, DTNB reduction, TNB absorbance 405 nm; activity change, negative = inhibition: at 114 µM (top of the series) unless noted; note: nearly all actives have a fitted effect of over 60% in size
Outline: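 Kinetic colorimetric format: TGR-catalysed, NADPH-driven DTNB reduction monitored via TNB absorbance. Enzyme dispensed at 20 nM; compound exposure 15 min at room temperature before reaction start.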
% is set by controls: 0 for no effect and ±100 for the full control effect; potency is the fitted concentration of half-maximal effect; tags give direction and shape of the fitted curve.

For `CC1(C)C2CCC1(CS(=O)(=O)N1CCN(c3ccc(F)cc3)CC1)C(=O)C2` (configuration not stated), which “activity change, negative = inhibition” value is on record?
Its value is inactive: -10.6%.

How did the Potency turn out when `COc1ccc(NC(=S)Nc2cccc3cnccc23)cc1` was run?
The Potency was active: 56.2 µM.

For `COc1ccc(S(=O)(=O)Nc2cccc(-c3ccc(N4CCC(C)CC4)nn3)c2)c(OC)c1`, which “activity change, negative = inhibition” value is on record?
The value was inactive: -2.5%.

With `COc1ccc(-c2ccc(CCC(=O)O)n2C(C)C)cc1` as the molecule, how does the Potency read?
Its Potency is inconclusive [inhibitor, full curve].

`Clc1ccc2oc3c(Cl)ncnc3c2c1` was tested. Which Potency did it give?
The Potency was inconclusive [inhibitor, partial curve].

`Cc1cc(C)nc(NS(=O)(=O)c2ccc(NC(=S)NC(=O)c3ccco3)cc2)n1` was tested. Which Potency did it give?
Its Potency is active: 14.1 µM.

`Cc1csc(CN(C)C(=O)CC2C(=O)NCCN2CC(C)(C)C)n1` (configuration not stated) was tested. Which Potency did it give?
The Potency was inconclusive [inhibitor, partial curve].

Which Potency does the source give for `Cc1cccc(-n2c(/C=C/c3ccc([N+](=O)[O-])o3)nc3ccccc3c2=O)c1` here?
The Potency was inconclusive [inhibitor, partial curve].

`O=S(=O)(NC1c2cccc3cccc(c23)C1N1CCNCC1)c1ccccc1` (configuration not stated) was tested. Which Potency did it give?
The Potency was inconclusive [inhibitor, full curve].

`Cc1ccc(C(=O)NC2CCCC2)s1` was tested. Which Potency did it give?
Its Potency is inconclusive [inhibitor, partial curve, poor fit].

For `COc1ccc(CCNC(=S)NC(=O)c2ccc(Br)cc2)cc1OC`, which Potency is on record?
The Potency was inconclusive [inhibitor, partial curve].

With `Cc1ccc(-n2ncc3c(=O)n(CC(=O)NCc4ccco4)cnc32)cc1C` as the molecule, how does the Potency read?
The Potency was inconclusive [inhibitor, partial curve].

How did the “activity change, negative = inhibition” value turn out when `CCC(C)N(C(=O)CSc1nnc2ccccn12)C1CCS(=O)(=O)C1` (configuration not stated) was run?
The value was inactive: 0.631%.

For `Cc1ccc(/C=C2/NC(=O)N(Cc3ccccc3F)C2=O)o1`, which Potency is on record?
The Potency was inconclusive [inhibitor, full curve].

`COc1ccccc1N1CCN(/N=C/c2ccc(O)c(O)c2)CC1` was tested. Which Potency did it give?
Its Potency is inconclusive [inhibitor, full curve, poor fit].

With `Cc1ccc(Cl)cc1NC(=O)CCS(=O)(=O)c1cccc2nonc12` as the molecule, how does the Potency read?
Its Potency is inconclusive [inhibitor, full curve].

How did the Potency turn out when `CN(C)CC#Cc1cncc(C(=O)NNC(=O)Nc2ccc(Cl)cc2)c1` was run?
The Potency was inconclusive [inhibitor, partial curve].

With `COc1ccc(-c2nc(CSc3nncn4c3cc3oc(C)cc34)c(C)o2)cc1` as the molecule, how does the “activity change, negative = inhibition” value read?
The value was inactive: 1.47%.

Which “activity change, negative = inhibition” value does the source give for `CCc1nn2c(-c3ccccc3OC)ccnc2c1-c1ccccc1` here?
The value was inactive: 5.98%.

`CC1CCCCC1NC(=S)Nc1ccc(SC(F)F)cc1` (configuration not stated) was tested. Which “activity change, negative = inhibition” value did it give?
Its value is inactive: -3.03%.

How did the Potency turn out when `Cc1c(C(=O)NCc2ccc(Cl)cc2)sc2nc3n(c(=O)c12)CCCCC3` was run?
Its Potency is active: 35.5 µM.

For `Cc1ccc(/C=C(\C#N)C(=O)NC(C)c2ccccc2)o1` (configuration not stated), which Potency is on record?
The Potency was inconclusive [inhibitor, partial curve].

With `CCNC(=O)C(=O)NCC(c1cccs1)S(=O)(=O)c1ccc(C)cc1` (configuration not stated) as the molecule, how does the Potency read?
Its Potency is inconclusive [inhibitor, single point].

For `CC(/C=C/c1ccco1)=N\NC(=O)c1cc(C)[nH]n1`, which Potency is on record?
The Potency was active: 28.2 µM.

Which Potency does the source give for `COc1ccc(C)cc1NC(=O)CSc1nnc(COc2ccc(Cl)cc2)n1Cc1ccco1` here?
The Potency was inconclusive [inhibitor, partial curve].

For `CCn1cc(C(c2ccccc2)C(C(C)=O)[N+](=O)[O-])c2ccccc21` (configuration not stated), which Potency is on record?
The Potency was inconclusive [inhibitor, partial curve].

How did the Potency turn out when `O=C(NC(=S)Nc1ccc2c(c1)OCCO2)c1ccccc1` was run?
Its Potency is active: 8.91 µM.

Which Potency does the source give for `COc1ccc(N2C(=O)CC(Nc3ccc(C(=O)O)cc3)C2=O)cc1OC` (configuration not stated) here?
Its Potency is active: 22.4 µM.

With `CCCCOc1[nH]c2nc(-c3ccco3)n(Cc3ccco3)c(=N)c2c1C#N` as the molecule, how does the Potency read?
The Potency was inconclusive [inhibitor, partial curve].

`Cc1ccccc1S(=O)(=O)Cc1ccc(C(=O)NCCCN(C)Cc2ccccc2)o1` was tested. Which Potency did it give?
Its Potency is inconclusive [inhibitor, partial curve].

For `CCOc1ccc(S(=O)(=O)NCC(c2ccco2)S(=O)(=O)c2cccs2)cc1` (configuration not stated), which Potency is on record?
Its Potency is active: 0.1 µM.

`CCc1ccc(CNC(=O)c2ccc(OC)c(OC3CCN(C(C)C)CC3)c2)nc1` was tested. Which Potency did it give?
The Potency was inconclusive [inhibitor, full curve, poor fit].

With `CCN(CC)CCCC(C)Nc1c2ccc(Cl)cc2nc2ccc(OC)cc12` (configuration not stated) as the molecule, how does the Potency read?
The Potency was inconclusive [inhibitor, partial curve].

With `C=CCNC(=S)Nc1ccc(OC)c(S(=O)(=O)N2CCOCC2)c1` as the molecule, how does the Potency read?
Its Potency is inconclusive [inhibitor, partial curve].

How did the “activity change, negative = inhibition” value turn out when `C=CCn1c(C)cc(-c2csc(NC(=O)CCc3nc4ccccc4c(=O)[nH]3)n2)c1C` was run?
Its value is inactive: -8.82%.

With `Cc1n[nH]c(=O)c2c(NC(=O)CSc3nnc(-c4ccncc4)n3C)oc(C)c12` as the molecule, how does the Potency read?
Its Potency is inconclusive [inhibitor, full curve, poor fit].

With `CCC1=NNc2cccc3c(OC)ccc1c23` as the molecule, how does the Potency read?
Its Potency is active: 10 µM.

`COc1ccc(NC(=O)CN2C(=O)NC3(CCCC3)C2=O)cc1Cl` was tested. Which “activity change, negative = inhibition” value did it give?
The value was inactive: -26%.

For `CCOC(=O)c1ccc(N=Cc2c(O)c3ccccc3oc2=O)cc1`, which “activity change, negative = inhibition” value is on record?
Its value is inactive: -1.72%.

With `COc1ccc(-c2cc(C(F)F)n3ncc(C(=O)N4CCN(C(=O)c5ccco5)CC4)c3n2)cc1` as the molecule, how does the Potency read?
The Potency was active: 28.2 µM.

How did the “activity change, negative = inhibition” value turn out when `Cc1ccc(-c2ccc(C(=O)O)c(C)n2)cc1` was run?
The value was inactive: 8.78%.

With `Cc1ccc(O)c(C(CC(=O)NCC2(c3ccccc3)CCCC2)c2ccccc2)c1` (configuration not stated) as the molecule, how does the “activity change, negative = inhibition” value read?
Its value is inactive: -3.3%.

With `CCOc1ccc(CNC(=O)C2CCN(c3nnc(-n4cccc4CNc4ccc(C)cc4)s3)CC2)cc1OC` as the molecule, how does the Potency read?
The Potency was inconclusive [inhibitor, single point].

`COC(=O)CCC(=O)OC1(C)C(=O)C2=CN(C(CO)CO)C(c3ccc(OC)cc3)=CC2=C(Br)C1=O` (configuration not stated) was tested. Which Potency did it give?
Its Potency is inconclusive [inhibitor, partial curve].

Which Potency does the source give for `CC1(C)CC(N2CCN(CCO)CC2)=CC(=S)N1` here?
The Potency was active: 39.8 µM.

With `CCS(=O)(=O)Nc1cccc(C2=NN(S(=O)(=O)c3ccccc3)C(c3ccco3)C2)c1` (configuration not stated) as the molecule, how does the Potency read?
The Potency was active: 28.2 µM.

Which Potency does the source give for `CCOC(=O)N1CCC(NCc2c(C(=O)N(C)Cc3ccccc3)nc3ccccn23)CC1` here?
The Potency was inconclusive [inhibitor, partial curve].

`O=C(Sc1cccc2cccnc12)c1ccc(F)cc1` was tested. Which Potency did it give?
Its Potency is inconclusive [inhibitor, full curve].

Which “activity change, negative = inhibition” value does the source give for `CCOC(=O)c1[nH]c(C)c(CCC(=O)NCc2ccccc2)c1C` here?
Its value is inactive: -0.659%.

For `O=C(NCC1CCCCC1)c1ccc(F)cc1Cl`, which Potency is on record?
Its Potency is inconclusive [inhibitor, single point].

Which Potency does the source give for `COc1ccc(Cn2c(O)c(/C=N/NC(=O)c3ccncc3)c(=O)[nH]c2=O)cc1` here?
Its Potency is inconclusive [inhibitor, full curve].

For `O=C1Nc2cccnc2N(C(=O)CCl)c2ccccc21`, which Potency is on record?
Its Potency is inconclusive [inhibitor, full curve].

Which Potency does the source give for `CC(NC(=S)NNS(=O)(=O)c1cccc([N+](=O)[O-])c1)c1ccccc1` (configuration not stated) here?
The Potency was inconclusive [inhibitor, full curve, poor fit].

How did the Potency turn out when `Fc1ccc(-c2noc3ncnc(N4CCN(c5ccccc5)CC4)c23)cc1` was run?
Its Potency is inconclusive [inhibitor, single point].

`COc1ccc(Cc2nc3ccc(C(=O)NCC4COCCO4)cc3o2)cc1` (configuration not stated) was tested. Which Potency did it give?
Its Potency is inconclusive [inhibitor, full curve, poor fit].

For `CCC(=O)N(CCC(c1ccccc1)c1ccco1)Cc1cccs1` (configuration not stated), which Potency is on record?
The Potency was active: 14.1 µM.

Which “activity change, negative = inhibition” value does the source give for `Cc1c(C(=O)NCCC2=CCCCC2)sc2ncnc(N3CCCCC3C)c12` (configuration not stated) here?
Its value is inactive: -15.9%.

How did the Potency turn out when `Cc1ccccc1-c1nc(CS(=O)(=O)CC(=O)N(C)C2CCCCC2)c(C)o1` was run?
Its Potency is active: 8.91 µM.

For `O=C1CN(c2nc(-c3cccnc3)nc3sc4c(c23)CCCC4)CCN1`, which “activity change, negative = inhibition” value is on record?
Its value is inactive: -1.15%.

For `CC(=O)Nc1ccc(C(=O)CSc2nnc(-c3ccccc3)n2-c2ccccc2)cc1`, which “activity change, negative = inhibition” value is on record?
The value was inactive: -1.28%.

Which Potency does the source give for `CCN1CCN(C(=O)c2cc3c(=O)n(C)c4ccccc4c3n2C)CC1` here?
Its Potency is inconclusive [inhibitor, partial curve].

For `CCCCOc1ccc(C(O)(CC)CCN2CCOCC2)cc1` (configuration not stated), which Potency is on record?
The Potency was active: 20 µM.

Which Potency does the source give for `Cn1c(Cc2csc(N)n2)nnc1SCC(=O)NC1CCCCC1` here?
Its Potency is active: 39.8 µM.

With `CC(C)c1ccc(NC(=O)c2cc3c(s2)-c2ccccc2SC3)cc1` as the molecule, how does the “activity change, negative = inhibition” value read?
Its value is inactive: 11.6%.

For `CC1CCCN(C(=O)CSc2nnc(-c3ccc(S(=O)(=O)N4CCOCC4)cc3)n2C)C1` (configuration not stated), which Potency is on record?
Its Potency is inconclusive [inhibitor, partial curve, poor fit].

`CN(Cc1ccc(F)cc1)C(=O)c1sccc1-c1ccccc1` was tested. Which Potency did it give?
The Potency was inconclusive [inhibitor, partial curve, poor fit].

How did the Potency turn out when `CC1(C)O[C@@H]2[C@H](O1)[C@@H](COS(=O)(=O)O)O[C@H]2n1cnc2c(N)ncnc21` was run?
The Potency was inconclusive [inhibitor, partial curve].

For `CC1(C)NC(C)(C)c2nonc2/C1=N\O`, which Potency is on record?
The Potency was inconclusive [inhibitor, full curve, poor fit].

With `O=C(CN1CCN(S(=O)(=O)c2cc(Cl)ccc2Cl)CC1)Nc1cccc(F)c1` as the molecule, how does the Potency read?
Its Potency is inconclusive [inhibitor, partial curve].

`Cc1ccccc1-c1cc(C(=O)O)nn1CC1CC(c2cccc([N+](=O)[O-])c2)=NO1` (configuration not stated) was tested. Which Potency did it give?
The Potency was inconclusive [inhibitor, partial curve].

Which Potency does the source give for `Cn1cc(S(=O)(=O)N2CCOCC2)cc1C(=O)NCCc1ccccc1` here?
Its Potency is active: 89.1 µM.

With `O=C(Nc1ccc(NC(=O)c2cc3ccccc3o2)cc1)c1ccccc1` as the molecule, how does the Potency read?
The Potency was inconclusive [inhibitor, single point].

Source: PubChem BioAssay AID485364 (National Center for Advancing Translational Sciences (NCATS), 2010)
